The text below walks through data of paper PMC7819943, “Rice protein-binding microarrays: a tool to detect cis-acting elements near promoter regions in rice”.

This is one part of the list.

This test concerns the target T1, OsWOX13 (Oryza sativa, UniProt Q5QMM3 1-267).
T1 sequence: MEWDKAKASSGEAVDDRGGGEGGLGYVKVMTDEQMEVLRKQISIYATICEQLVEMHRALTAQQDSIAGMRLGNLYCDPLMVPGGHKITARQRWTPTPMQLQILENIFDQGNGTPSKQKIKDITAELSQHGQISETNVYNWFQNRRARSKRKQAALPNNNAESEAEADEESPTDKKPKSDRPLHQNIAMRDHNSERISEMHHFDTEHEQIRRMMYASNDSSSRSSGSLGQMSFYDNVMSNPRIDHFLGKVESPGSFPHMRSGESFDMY
The experiment in a line: protein-binding microarray (RPBM); PBS, 2% BSA, 51.3 ng/ul salmon testes DNA, 50 uM zinc acetate, 200 nM TF, 25 C, 1 h; high values mean tight binding. The note with it: protein: recombinant; tags: N-terminal polyhistidine and DsRed monomer fusion (pET32a); label: CyDye5-dUTP incorporated in the synthesized complementary strand; 3' TTTTT single-stranded linker to array surface; dsDNA, one strand shown. The gist of the method:
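Using Ni–NTA, transcription factors fused N-terminally to polyhistidine and DsRed were purified after expression in E. coli BL21-CodonPlus. These were incubated at 200 nM with a blocked, double-stranded custom Agilent array for 1 h at 25 °C in a buffer containing 50 µM zinc acetate, and the array was washed. The binding signal is per-feature fluorescence intensity (arbitrary units) on an Axon 4000B scanner.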
Regarding “TATAATAATTGCTAGTGAGTGATGATATGGCACACTTGCACGGAGTCACCTAGTGCAG”, the binding signal was 21900 fluorescence intensity (a.u.). The same measure for “ATCCTCTATAATTATGGACAGAGGGAGTATGTTTATCTACCGGAGTCACCTAGTGCAG”: 6940 fluorescence intensity (a.u.); for “AGTGTTCTAATAGATCAATTGATTTCGGTACTAATCAGATCGGAGTCACCTAGTGCAG”: 11400 fluorescence intensity (a.u.); for “GTCACCGTGACTGGCGTTGCCAAACTAGCGTGAACAAAAGCGGAGTCACCTAGTGCAG”: 3150 fluorescence intensity (a.u.). Turning to “TTAACTTGTCAACGAATCTGATTTTCATCCTTCAACCGAACGGAGTCACCTAGTGCAG”, the binding signal was 4150 fluorescence intensity (a.u.). Take “AAAATTAATTCACACTTTAAATGTTACATGGATTTGAACTCGGAGTCACCTAGTGCAG”: the binding signal is 15500 fluorescence intensity (a.u.). The value for “TGAAAATTTAACTTATGTTATAAACATAAGGCACGCAATGCGGAGTCACCTAGTGCAG” was 4910 fluorescence intensity (a.u.); that for “GTTTATAATTTGCACAATTTCTATAGGGTTTCAGTTAAATCGGAGTCACCTAGTGCAG” was 4710 fluorescence intensity (a.u.). As for “ACCTTAATAATGAAATTTCTTGCACAATTTTAGTTCATATCGGAGTCACCTAGTGCAG”, the binding signal was 6300 fluorescence intensity (a.u.). The value for “CGGATGATTACTGTAGCATCATTGTAGCAAACCATAGATTCGGAGTCACCTAGTGCAG” was 11200 fluorescence intensity (a.u.).

For “ATTAATTAGGCTTAATAAATTCATGTCGCAATTTATAGGCCGGAGTCACCTAGTGCAG”, the binding signal was 32900 fluorescence intensity (a.u.).

On to “TTATACCAATCACAAGTTCATTTTAACAATTTGCTTACAGCGGAGTCACCTAGTGCAG”, for which the binding signal is 17900 fluorescence intensity (a.u.). For “ATAATTAGCAGATGATTACTATAGCATCACTGTAGCAAATCGGAGTCACCTAGTGCAG”, the binding signal was 22300 fluorescence intensity (a.u.). In the case of “TTTCGTAGTTCTAATTTTCTGATTGTTATCGATATGGTTACGGAGTCACCTAGTGCAG”, the binding signal is 5330 fluorescence intensity (a.u.). The value for “AGAAATAATATCTTACTAATTAGCAACTGAGGTTTCTCTTCGGAGTCACCTAGTGCAG” was 10600 fluorescence intensity (a.u.). The value for “TTTATGGCGTCAATCATTTAACAGTTACTTTTAAACGCGGCGGAGTCACCTAGTGCAG” was 19900 fluorescence intensity (a.u.); that for “ACTTCAGTCATTTTCCATCACATCAACATGTCATATACATCGGAGTCACCTAGTGCAG” was 4220 fluorescence intensity (a.u.); that for “CTTCCTCATCAACTCAATGATCGACGTATATATATATACACGGAGTCACCTAGTGCAG” was 3560 fluorescence intensity (a.u.). The value for “AATTTAGATATGAAGTCTGATTAGATTCGTAGTATGTGTTCGGAGTCACCTAGTGCAG” was 20300 fluorescence intensity (a.u.); that for “GGATCATTGCCCTTGATTTATCGCCTAATATCACTGCGATCGGAGTCACCTAGTGCAG” was 5280 fluorescence intensity (a.u.). In the case of “GGTGTAAATTAGTCAATCTTGAATCGAAGAGAGTATGGAACGGAGTCACCTAGTGCAG”, the binding signal is 25900 fluorescence intensity (a.u.). For the sequence “GTGAGATTAGATTCCATGATTGGACAAAAGTGTGTTAATCCGGAGTCACCTAGTGCAG”, the binding signal is 47900 fluorescence intensity (a.u.). The same measure for “TCGACACCTCGTCAAGGGGCAATCACACTCCGTGACGACTCGGAGTCACCTAGTGCAG”: 5830 fluorescence intensity (a.u.).

In the case of “CCATTTAGATTATTAAAAGTGACATCGTTCGATTCGTCCTCGGAGTCACCTAGTGCAG”, the binding signal is 9560 fluorescence intensity (a.u.). The value for “TTTTAATTGTACATTGTAATATTATTCATAGAATCAACATCGGAGTCACCTAGTGCAG” was 9230 fluorescence intensity (a.u.); that for “CCTCATTGTCAATCAATGTTTTGGCTATCATCCTCGATGCCGGAGTCACCTAGTGCAG” was 41800 fluorescence intensity (a.u.).

On to “GTAAATTGATTTGTATATGGCCATTTCCAACCCAAAACACCGGAGTCACCTAGTGCAG”, for which the binding signal was 56300 fluorescence intensity (a.u.). On to “ATTAATTAACAATAATAAGTGATTAATAATTAATTAATCGCGGAGTCACCTAGTGCAG”, for which the binding signal was 44200 fluorescence intensity (a.u.). For “TATCTAATAATAACAATCAAACGTTAGACATACAAACTCACGGAGTCACCTAGTGCAG”, the binding signal is 6350 fluorescence intensity (a.u.). Regarding “TTTTGACATCACCAAATTTAAATAAGACAACAAACTAATTCGGAGTCACCTAGTGCAG”, the binding signal was 5110 fluorescence intensity (a.u.). The same measure for “CGTTACATCATTTTAATTTCAATCAAACTTCCAATTTTAACGGAGTCACCTAGTGCAG”: 13300 fluorescence intensity (a.u.); for “ATATAGTTTAATGTCATAAGATAACTTAGGATAAACGTGGCGGAGTCACCTAGTGCAG”: 3810 fluorescence intensity (a.u.); for “TAACAAATTAAATTGAAAATAGTTATCGTACATTCACAATCGGAGTCACCTAGTGCAG”: 9910 fluorescence intensity (a.u.). In the case of “TATAAAATTTGTCCTAATGAATTTTCCTACTACAGTTTTACGGAGTCACCTAGTGCAG”, the binding signal was 3570 fluorescence intensity (a.u.).

Turning to “GTTGATGTGATGGAAAATGACTGAAGATTGGATCTAAACTCGGAGTCACCTAGTGCAG”, the binding signal is 31100 fluorescence intensity (a.u.).

Take “CTAAAATTTGCTGCTCTCTCCAGTTCCTTCACTTCTTCAACGGAGTCACCTAGTGCAG”: the binding signal was 4030 fluorescence intensity (a.u.).

On to “AATTAACTGTTAACTGCACCCATCAGTAACAAAATAACGCCGGAGTCACCTAGTGCAG”, for which the binding signal is 22900 fluorescence intensity (a.u.).

Turning to “AGGGTGATAGAGAGAGAGAGATTCAGATCCACCCGCGTCTCGGAGTCACCTAGTGCAG”, the binding signal was 3530 fluorescence intensity (a.u.). The value for “TAAGATAAATTGCAGAAAACTTCAACTGTTTTGTCCAAACCGGAGTCACCTAGTGCAG” was 3540 fluorescence intensity (a.u.); that for “GGTGACACTTAATTAGGATGGCTAGTAATATTGCAGTCGTCGGAGTCACCTAGTGCAG” was 17800 fluorescence intensity (a.u.); that for “AGAAGTTGATTTGGGGTTGCGCTATATCTATTAAAGAGTACGGAGTCACCTAGTGCAG” was 7340 fluorescence intensity (a.u.). The same measure for “GGTTGTTAGCACATGATTAATTGTATTAAAACAACTTAAACGGAGTCACCTAGTGCAG”: 3580 fluorescence intensity (a.u.).
